Measurements as given in PMC6687534.
Results are given in words; binding and its absence hold for the method and conditions named. In cells and extracts the contact can be indirect. Some results given as binding are weak or reduced against the parent protein; the word gives no strength. For part of these data: Sequences can lack the tags named with a protein. Each block holds one substance with its values, some of them ahead of it.

Protein sequences, listed by entry. Tags and fused reporters are not part of them.
UniProt Q13761: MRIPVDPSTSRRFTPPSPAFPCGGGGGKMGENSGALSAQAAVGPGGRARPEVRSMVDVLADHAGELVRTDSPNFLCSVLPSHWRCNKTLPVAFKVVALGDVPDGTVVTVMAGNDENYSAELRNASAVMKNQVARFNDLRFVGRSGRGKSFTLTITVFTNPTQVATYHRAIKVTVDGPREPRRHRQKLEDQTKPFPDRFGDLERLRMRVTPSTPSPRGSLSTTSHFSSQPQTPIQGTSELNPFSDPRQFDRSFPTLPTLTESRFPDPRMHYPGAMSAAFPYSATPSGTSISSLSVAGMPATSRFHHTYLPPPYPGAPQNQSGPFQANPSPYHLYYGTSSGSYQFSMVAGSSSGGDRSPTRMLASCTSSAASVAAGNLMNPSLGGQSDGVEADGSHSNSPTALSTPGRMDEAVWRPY

Experiments:
[1] = biological target: FLAG-tagged RUNX1 wild-type, transfected in HEK293T (UniProt Q01196); experiment: co-IP; anti-FLAG gel on lysates of transfected HEK293T cells (in part stably expressing IKZF3 or IKZF1); NP-40 buffer, 4 °C overnight; immunoblot; in Fig. 4a-d cells treated with DMSO or increasing amounts (or 1 μM) of the RUNX inhibitor AI-10-104
[2] = biological target: FLAG-tagged RUNX3, transfected in HEK293T (UniProt Q13761); experiment: as above
[3] = biological target: FLAG-tagged IKZF3 wild-type, transfected in HEK293T (human) (UniProt Q9UKT9); experiment: as above
[4] = biological target: T1, FLAG-tagged IKZF3 Δ1-181 (human) (UniProt Q9UKT9); experiment: as above
T1 sequence: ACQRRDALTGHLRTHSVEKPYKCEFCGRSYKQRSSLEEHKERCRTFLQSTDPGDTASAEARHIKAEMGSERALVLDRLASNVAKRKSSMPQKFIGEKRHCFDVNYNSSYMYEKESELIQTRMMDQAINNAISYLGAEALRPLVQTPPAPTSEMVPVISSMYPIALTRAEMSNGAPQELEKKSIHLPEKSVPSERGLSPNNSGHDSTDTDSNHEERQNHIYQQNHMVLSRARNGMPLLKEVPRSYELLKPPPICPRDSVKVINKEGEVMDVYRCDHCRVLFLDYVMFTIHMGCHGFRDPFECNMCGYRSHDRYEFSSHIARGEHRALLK

[5] = biological target: T2, FLAG-tagged IKZF3 Δ1-243 (human) (UniProt Q9UKT9); experiment: as above
T2 sequence: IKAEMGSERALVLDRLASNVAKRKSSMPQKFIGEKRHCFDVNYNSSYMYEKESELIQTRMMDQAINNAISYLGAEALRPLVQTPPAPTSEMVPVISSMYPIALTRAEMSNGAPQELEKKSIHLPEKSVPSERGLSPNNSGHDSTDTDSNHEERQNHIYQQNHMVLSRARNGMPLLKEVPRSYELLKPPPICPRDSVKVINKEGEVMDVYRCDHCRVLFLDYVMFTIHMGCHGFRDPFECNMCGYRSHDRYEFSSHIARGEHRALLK

[6] = biological target: FLAG-tagged IKZF3 Δ480-509 (human) (UniProt Q9UKT9); experiment: as above
[7] = biological target: T3, FLAG-tagged IKZF3 Δ1-279 (human) (UniProt Q9UKT9); experiment: as above
T3 sequence: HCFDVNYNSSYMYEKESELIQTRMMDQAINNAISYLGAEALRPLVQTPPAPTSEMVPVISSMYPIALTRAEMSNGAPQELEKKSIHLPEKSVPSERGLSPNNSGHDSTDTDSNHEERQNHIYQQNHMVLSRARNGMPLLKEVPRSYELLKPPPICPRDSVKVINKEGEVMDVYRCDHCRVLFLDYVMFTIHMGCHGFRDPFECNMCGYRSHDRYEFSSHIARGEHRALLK

[8] = biological target: FLAG-tagged IKZF3 Δ420-509 (human) (UniProt Q9UKT9); experiment: as above
[9] = biological target: FLAG-tagged IKZF3 wild-type, transfected in HEK293T (human) (UniProt Q9UKT9); experiment: co-IP; anti-FLAG IP from HEK293T cells transfected with FLAG-IKZF1 or FLAG-IKZF3; immunocomplexes treated with Benzonase for 30 min on ice and washed further; immunoblot
[10] = biological target: FLAG-tagged human IKZF3, stably expressed in myeloma cells (human) (UniProt Q9UKT9); experiment: co-IP; anti-FLAG resin on extracts of ARP-1 and OPM-1 cells stably expressing FLAG-IKZF1 or FLAG-IKZF3; NP-40 buffer (0.1% NP-40, 15 mM Tris-HCl pH 7.4, 1 mM EDTA, 150 mM NaCl, 1 mM MgCl2, 10% glycerol), 4 °C overnight; immunoblot
[11] = biological target: GST-IKZF3, purified recombinant (human) (UniProt Q9UKT9); experiment: pull-down; purified GST-tagged proteins incubated with in vitro translated FLAG-tagged proteins at 4 °C overnight; Glutathione Sepharose 4B; probed with anti-FLAG antibodies; only the target purified

Substance: IKZF3 stably expressed in HEK293T cells (from UniProt Q9UKT9 1-509)
- binding [1]: binds
- binding [2]: binds

Substance: endogenous RUNX1 of myeloma cells (from UniProt Q01196 1-453)
- binding [10]: binds

Continued, values first:

- binding [3]: binds
- binding [4]: no binding
- binding [5]: no binding
- binding [6]: binds
- binding [7]: no binding
- binding [8]: binds
- binding [9]: binds
Substance: RUNX1 found in HEK293T cell extracts (from UniProt Q01196 1-453)

- binding [10]: binds
Substance: endogenous RUNX3 of myeloma cells (from UniProt Q13761 1-415)

- binding [11]: binds
Substance: in vitro translated FLAG-tagged RUNX1, full-length (from UniProt Q01196 1-453)
